Assay results: the supplement of paper PMC4604168 (melanoma cell lines)
The list shows a part of the results. Most values come without repeats; read them as rough.

Key:
Assay in all cases: cell count relative to DMSO control; melanoma cells; higher = more viable cells
Conditions in all cases: library dose: low library concentration; 72 h
MZ2-MEL = system: MZ2-MEL
MeWo = system: MeWo
RPMI7951 = system: RPMI7951
RVH-421 = system: RVH-421
SkMel28 = system: SkMel28
SkMel30 = system: SkMel30
SkMel5 = system: SkMel5
UACC257 = system: UACC257
UACC62 = system: UACC62
WM115 = system: WM115
WM1716 = system: WM1716
WM1745 = system: WM1745
WM3526 = system: WM3526
WM3619 = system: WM3619
WM451Lu = system: WM451Lu
SkMel2 = system: SkMel2
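Note: cell number obtained by counting DAPI-stained nuclei in high-throughput microscope images with image analysis software, screen run in 1,536-well plates.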

Row | Structure (SMILES) | cell count (MZ2-MEL) [%] | cell count (MeWo) [%] | cell count (RPMI7951) [%] | cell count (RVH-421) [%] | cell count (SkMel28) [%] | cell count (SkMel30) [%] | cell count (SkMel5) [%] | cell count (UACC257) [%] | cell count (UACC62) [%] | cell count (WM115) [%] | cell count (WM1716) [%] | cell count (WM1745) [%] | cell count (WM3526) [%] | cell count (WM3619) [%] | cell count (WM451Lu) [%] | cell count (SkMel2) [%]
1 | Cc1cc(N2CCOCC2)cc2[nH]c(-c3c(NC[C@@H](O)c4cccc(Cl)c4)cc[nH]c3=O)nc12 + COc1ccc2c(c1)CCC1C2CCC2(C)C(NCCCCCCN3C(=O)C=CC3=O)CCC12 [U73122] (first compound 0.2 µM, partner dose 0.4 µM) | 104 | 95.1 | 97.6 | 87.8 | 89.3 | 78.7 | 114 | 86.6 | 96.6 | 106 | 84.8 | 69 | 111 | 102 | 96.1 | 
2 | O=C(O)[C@@H]1[O][Sb](=[O])([O][Sb]2(=[O])[O][C@H]([C@H](O)CO)[C@H](O)[C@H](C(=O)O)[O]2)[O][C@H]([C@H](O)CO)[C@@H]1O (stereo partly drawn) [stibogluconate] + CS(=O)(=O)CCNCc1ccc(-c2ccc3ncnc(Nc4ccc(OCc5cccc(F)c5)c(Cl)c4)c3c2)o1 [lapatinib] (first compound 2 µM, partner dose 0.8 µM) | 95.8 | 96.5 | 98.2 | 108 | 92.9 | 111 |  |  | 86.1 | 107 | 127 | 111 | 116 | 97.8 | 97.6 | 100
3 | O=C(Nc1ccccc1)c1cc([N+](=O)[O-])ccc1Cl + c1cc(-c2cnn3cc(-c4ccc(OCCN5CCCCC5)cc4)cnc23)ccn1 [Dorsomorphin] (first compound 2 µM, partner dose 0.4 µM) | 88.4 | 87.1 | 88.6 | 112 | 97.9 | 116 | 90.2 | 87.8 | 85.9 | 88.8 | 88.9 | 76.7 | 127 | 79 | 146 | 
4 | Cc1cc(N2CCOCC2)cc2[nH]c(-c3c(NC[C@@H](O)c4cccc(Cl)c4)cc[nH]c3=O)nc12 + COC(=O)c1sccc1S(=O)(=O)Nc1ccc(Nc2ccccc2)cc1OC [GSK0660] (first compound 0.2 µM, partner dose 1 µM) | 94.8 | 99.7 | 101 | 116 | 97.6 | 88.2 | 94.6 | 97.7 | 78.4 | 98.7 | 109 | 89.2 | 110 | 84.5 | 92.7 | 
5 | O=C(Nc1ccccc1)c1cc([N+](=O)[O-])ccc1Cl + COC(=O)c1sccc1S(=O)(=O)Nc1ccc(Nc2ccccc2)cc1OC [GSK0660] (first compound 2 µM, partner dose 1 µM) | 93.1 | 93 | 105 | 96.8 | 99.7 | 97.6 | 97.9 | 82.6 | 90.2 | 93.4 | 101 | 87 | 89.5 | 90.8 | 110 | 
6 | Cn1nnc2c(C(N)=O)ncn2c1=O [temozolomide] + Cn1cc(/C=C2\C(=O)Nc3cccnc32)c2ccccc21 [GW441756] (first compound 2 µM, partner dose 0.4 µM) | 84.4 | 108 | 98.2 | 91.1 | 77.3 | 78.1 | 78.9 | 106 | 72.7 | 96.2 | 101 | 74.8 | 97.3 | 117 | 115 | 
7 | O=C(Nc1ccccc1)c1cc([N+](=O)[O-])ccc1Cl + Oc1cc(-c2nc(-c3ccccc3)[nH]c2-c2ccncc2)ccc1Cl [L779450] (first compound 2 µM, partner dose 0.2 µM) | 71 | 89.1 | 108 | 94.4 | 87.9 | 75.4 | 112 | 92.5 | 78.9 | 80.7 | 119 | 90.5 | 87.5 | 82.7 | 98.1 | 
8 | O=C(Nc1cc(C(F)(F)F)cc(C(F)(F)F)c1)c1cc(Cl)ccc1O + C[C@@H](N)c1ccc(C(=O)Nc2ccnc3[nH]ccc23)cc1 [RKI983] (first compound 0.016 µM, partner dose 0.4 µM) | 88.6 | 67.7 | 85.5 | 83.8 | 60.8 | 129 |  |  | 103 | 137 | 64.3 | 90 | 114 | 104 | 111 | 108
9 | O=C(Nc1ccccc1)c1cc([N+](=O)[O-])ccc1Cl + CCN(CC)CCCCNc1ncc2cc(-c3cc(OC)cc(OC)c3)c(NC(=O)NC(C)(C)C)nc2n1 [PD173074] (first compound 2 µM, partner dose 0.1 µM) | 96 | 104 | 68.6 | 98.8 | 72.9 | 96.7 | 104 | 139 | 91.6 | 99.7 | 91.8 | 106 | 127 | 94.3 | 90.2 | 
10 | O=C(Nc1cc(C(F)(F)F)cc(C(F)(F)F)c1)c1cc(Cl)ccc1O + Cc1cn(-c2cc(NC(=O)c3ccc(C)c(Nc4nccc(-c5cccnc5)n4)c3)cc(C(F)(F)F)c2)cn1 [nilotinib] (first compound 0.016 µM, partner dose 0.2 µM) | 95.3 | 103 | 90 | 81 | 111 | 99.2 |  |  | 85.1 | 101 | 98.2 | 91.4 | 108 | 109 | 93.5 | 90.5
11 | O=C(O)[C@@H]1[O][Sb](=[O])([O][Sb]2(=[O])[O][C@H]([C@H](O)CO)[C@H](O)[C@H](C(=O)O)[O]2)[O][C@H]([C@H](O)CO)[C@@H]1O (stereo partly drawn) [stibogluconate] + Nc1ccn([C@@H]2O[C@H](CO)[C@@H](O)C2(F)F)c(=O)n1 [gemcitabine] (first compound 2 µM, partner dose 0.0004 µM) | 101 | 95.3 | 93.6 | 90.8 | 90.2 | 84.2 |  |  | 85.9 | 96.1 | 92.8 | 68.1 | 88.3 | 60.8 | 86.1 | 89.1
12 | O=C(O)[C@@H]1[O][Sb](=[O])([O][Sb]2(=[O])[O][C@H]([C@H](O)CO)[C@H](O)[C@H](C(=O)O)[O]2)[O][C@H]([C@H](O)CO)[C@@H]1O (stereo partly drawn) [stibogluconate] + Cn1c(Nc2ccc(C(F)(F)F)cc2)nc2cc(Oc3ccnc(-c4ncc(C(F)(F)F)[nH]4)c3)ccc21 [CHIR265] (first compound 2 µM, partner dose 0.08 µM) | 94.2 | 68.6 | 71.4 | 78.7 | 74 | 53 |  |  | 52.3 | 58.8 | 92.1 | 78.2 | 46.1 | 89.5 | 88.2 | 94.6
13 | O=C(Nc1cc(C(F)(F)F)cc(C(F)(F)F)c1)c1cc(Cl)ccc1O + Nc1nc(F)nc2c1ncn2[C@@H]1O[C@H](CO)[C@@H](O)[C@@H]1O [fludarabine] (first compound 0.016 µM, partner dose 0.2 µM) | 113 | 50.8 | 115 | 139 | 96.4 | 21.5 |  |  | 82.8 | 85 | 139 | 125 | 30.8 | 86.8 | 56 | 0.334
14 | Cn1nnc2c(C(N)=O)ncn2c1=O [temozolomide] + COC(=O)c1sccc1S(=O)(=O)Nc1ccc(Nc2ccccc2)cc1OC [GSK0660] (first compound 2 µM, partner dose 1 µM) | 82.8 | 109 | 98.4 | 117 | 96.5 | 104 | 98.2 | 84.7 | 81.9 | 111 | 93.2 | 72.5 | 103 | 96.2 | 95.9 | 
15 | O=C(Nc1cc(C(F)(F)F)cc(C(F)(F)F)c1)c1cc(Cl)ccc1O + C=CCNC1=C2C[C@@H](C)C[C@H](OC)[C@H](O)[C@@H](C)/C=C(\C)[C@H](OC(N)=O)[C@@H](OC)/C=C\C=C(/C)C(=O)NC(=CC1=O)C2=O [Tanespimycin] (first compound 0.016 µM, partner dose 0.002 µM) | 99.4 | 96.4 | 91.3 | 100 | 108 | 109 |  |  | 92.9 | 97.3 | 97.1 | 80.8 | 95.7 | 92.2 | 92.7 | 103
16 | O=C(Nc1ccccc1)c1cc([N+](=O)[O-])ccc1Cl + COc1cc2ncnc(Nc3ccc(Oc4ccccc4)cc3)c2cc1OC [SrcI1] (first compound 2 µM, partner dose 2 µM) | 80.9 | 99.5 | 125 | 111 | 94.7 | 92 | 104 | 117 | 107 | 105 | 109 | 75.8 | 81 | 89.5 | 122 | 
17 | Cn1nnc2c(C(N)=O)ncn2c1=O [temozolomide] + COc1cc(N2CCC(N3CCN(C)CC3)CC2)ccc1Nc1ncc(Cl)c(Nc2ccccc2S(=O)(=O)C(C)C)n1 [NVP-TAE684] (first compound 2 µM, partner dose 0.08 µM) | 85.7 | 83.6 | 93.2 | 90.9 | 96 | 77.5 | 87.1 | 95.4 | 91.6 | 96.8 | 81.6 | 82.4 | 108 | 108 | 102 | 
18 | O=C(Nc1cc(C(F)(F)F)cc(C(F)(F)F)c1)c1cc(Cl)ccc1O + Cc1cc([N+](=O)[O-])ccc1NS(=O)(=O)c1cc(Cl)ccc1Cl [FH535] (first compound 0.016 µM, partner dose 1 µM) |  | 94.1 | 95.3 | 86.9 | 90.3 | 98.6 | 78.6 | 76 | 85.7 | 90.5 | 93.7 | 100 | 108 | 101 | 90.7 | 98.8
19 | O=C(Nc1cc(C(F)(F)F)cc(C(F)(F)F)c1)c1cc(Cl)ccc1O + Cn1cc(/C=C2\C(=O)Nc3cccnc32)c2ccccc21 [GW441756] (first compound 0.016 µM, partner dose 0.4 µM) |  | 106 | 98.5 | 92.2 | 91.1 | 114 | 76.2 | 83.1 | 93.5 | 111 | 118 | 89.2 | 99.2 | 95.7 | 94.9 | 100
20 | O=C(O)[C@@H]1[O][Sb](=[O])([O][Sb]2(=[O])[O][C@H]([C@H](O)CO)[C@H](O)[C@H](C(=O)O)[O]2)[O][C@H]([C@H](O)CO)[C@@H]1O (stereo partly drawn) [stibogluconate] + Cn1cncc1[C@@](N)(c1ccc(Cl)cc1)c1ccc2c(c1)c(-c1cccc(Cl)c1)cc(=O)n2C [tipifarnib] (first compound 2 µM, partner dose 0.01 µM) |  | 102 | 116 | 83 | 101 | 122 | 107 | 73.7 | 73.3 | 93.9 | 83.2 | 109 | 92.2 | 88.5 | 79.7 | 88.5
